Molecules are shown by their SMILES. Where a name gives a salt, the structure may show the parent alone. Over roughly 2,800 compounds, “cell viability relative to vehicle” has its median near 1.1; the lowest 2% begin near 0.19. This is one part of the list.

The text below walks through data of the supplement of paper PMC10600219.

The experiment relates to NCI-H2228 parental. Description: cell viability relative to vehicle (fraction of vehicle); NCI-H2228 is an ALK-positive lung cancer line and DTP means drug-tolerant persister; higher = less growth inhibition. To be noted: 100 nM; treatment time 6 days. The essentials:
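Each value is viability relative to vehicle-treated cells, measured as ATP with the CellTiter-Glo 3D Cell Viability Assay. Parental NCI-H2228 cells and drug-tolerant persisters (1000 nM targeted drug, 13 days) in 384-well plates received the 3114-agent TargetMol anti-cancer compound library at 100 nM, or DMSO, and were read 6 days later.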
For `OCCN(CCO)c1nc(N2CCCCC2)c2nc(N(CCO)CCO)nc(N3CCCCC3)c2n1` [Dypyridamole], the cell viability was 0.997.

`CN(c1nccc(=O)[nH]1)C1CCN(c2nc3ccccc3n2Cc2ccc(F)cc2)CC1` [Mizolastine]: the cell viability is 1.12.

Consider `CC[C@@H](C)Nc1cc(C(=O)N[C@H]2C[C@H]3CC[C@@H](C2)N3c2ccc(C(=O)C3CC3)cn2)c(C)cc1C(N)=O`, for which the cell viability is 0.256.

Turning to `CC(=O)OC(C)OC(=O)C(C)c1ccc(-c2ccccc2)c(F)c1` (stereo not given) [Flurbiprofen Axetil], the cell viability was determined as 1.13.

For `Cc1ccc(F)c(NC(=O)Nc2ccc(-c3cccc4[nH]nc(N)c34)cc2)c1` [Linifanib], the cell viability was 1.

Turning to `C[C@]12CC[C@@H]3c4ccc(OC(=O)c5ccccc5)cc4CC[C@H]3[C@@H]1CC[C@@H]2O` [Estradiol benzoate], the cell viability was 1.15.

In the case of `O=C[C@H](O)[C@@H](O)[C@H](O)[C@H](O)CO[C@H]1O[C@H](CO[C@H]2O[C@H](CO)[C@H](O)[C@H](O)[C@H]2O)[C@H](O)[C@H](O)[C@H]1O` [Manninotriose], the cell viability was found to be 1.11.

Consider `CC(C)(C)[N+]([O-])=Cc1ccc(S(=O)(=O)O)cc1S(=O)(=O)O`, for which the cell viability is 1.06.

For `CC(=O)OC(C)(C)CCC(=O)[C@](C)(O)[C@H]1[C@H](O)C[C@@]2(C)[C@@H]3CC=C4[C@@H](C[C@H](O)[C@@H](O)C4(C)C)[C@]3(C)C(=O)C[C@]12C` [Cucurbitacin IIA], the cell viability is 1.03.

For the compound `O=C(/C=C\n1cnc(-c2cc(C(F)(F)F)cc(C(F)(F)F)c2)n1)N1CC(F)(F)C1`, the cell viability is 0.514.

In the case of `CN(CCNc1ccnc2cc(Cl)ccc12)CCNc1ccnc2cc(Cl)ccc12`, the cell viability was 1.11.

As for `CC(C)OC(=O)C1=CN(C(=O)c2ccc(F)c(F)c2)CC(C)(C)c2c1[nH]c1ccccc21` [Turofexorate Isopropyl], the cell viability amounted to 0.951.

On to `Clc1ccc(C(c2c[nH]c3ccccc23)c2c[nH]c3ccccc23)cc1`, for which the cell viability is 1.01.

Regarding `O=C(Nc1ccncc1)c1cc([N+](=O)[O-])ccc1Cl`, the cell viability came to 1.09.

With `CCCCCCNC(=O)Nc1ccc(S(=O)(=O)Nc2ccc(CCNC[C@H](O)COc3ccc(O)cc3)cc2)cc1`, the cell viability came out at 1.16.

For the compound `COCCCN1CCC(NC(=O)c2cc(Cl)c(N)c3c2OCC3)CC1` [Prucalopride], the cell viability stood at 1.18.

Turning to `Cn1c(-c2ccccc2C(F)(F)F)nnc1C12CCC(c3noc(C4CC(F)(F)C4)n3)(CC1)CC2`, the cell viability worked out at 1.16.

For the compound `CC(C)(O)CNc1ncc(-c2ccnc(Nc3ccnc(Cl)c3)n2)c(CC2CC2)n1`, the cell viability is 0.891.

As for `CNc1nc(Nc2cn(C(C)(C)C#N)nc2C)ncc1C(F)(F)F`, the cell viability is 1.07.

On to `C=CC(=O)N1C/C(=C\c2ccc([N+](=O)[O-])cc2)C(=O)/C(=C/c2ccc([N+](=O)[O-])cc2)C1`, for which the cell viability turned out to be 0.992.

Regarding `Cc1cc(CN2CCN(c3c(Br)cnc4nc(-c5ccc(N6CCN(C)CC6)cc5)[nH]c34)CC2)no1`, the cell viability was 1.04.

In the case of `CCOC(=O)/C=C/c1ccc(O)c(O)c1` [Ethyl caffeate], the cell viability turned out to be 1.03.

On to `NC(=O)c1ccc(OCCCN2CC3CCCC3C2)cc1` (stereo not given), for which the cell viability was 1.17.

Regarding `COc1ccc(C2CC(=O)c3c(O)cc(OC4OC(COC5OC(C)C(O)C(O)C5O)C(O)C(O)C4O)cc3O2)cc1OC` (stereo not given) [Methyl hesperidin], the cell viability was 0.998.

As for `O=C(Oc1cc(S(=O)(=O)c2ccccc2)ccc1[N+](=O)[O-])c1ccc(Cl)cc1`, the cell viability came to 1.07.

In the case of `COc1cc(N2CCOCC2)ccc1Nc1ncc(F)c(Nc2ccccc2NS(C)(=O)=O)n1`, the cell viability is 0.855.

As for `N[C@@H](Cc1cc(I)c(Oc2ccc(O)c(I)c2)c(I)c1)C(=O)O` [O-(4-Hydroxy-3-iodophenyl)-3,5-diiodo-L-tyrosine], the cell viability worked out at 1.15.

As to `N[C@@H](Cc1cc(I)c(Oc2ccc(O)c(I)c2)c(I)c1)C(=O)O` [Liothyronine sodium], the cell viability worked out at 1.07.

As to `CCN1CCN(Cc2ccc(C(=O)Nc3ccc(C)c(Oc4ccc5c(c4)CC(=O)N5)c3)cc2C(F)(F)F)CC1`, the cell viability came to 1.1.

With `CNc1nc(-c2cccc(NC(=O)c3ccc(C(=O)OC)cc3)c2)c2cc(OC)c(OC)cc2n1` [Lotamilast], the cell viability was determined as 0.999.

`Nc1c2ccccc2nc2ccccc12` [Aminacrine]: the cell viability was 1.04.

As to `N#Cc1cc2cc(CN3CCC(Nc4ncnc5sc(CC(F)(F)F)cc45)CC3)ccc2[nH]1`, the cell viability was determined as 1.12.

Turning to `Cc1ccc(=O)n(-c2ccccc2)c1` [Pirfenidone], the cell viability amounted to 0.888.

As for `C[C@@H](O[C@H]1OCCN(Cc2n[nH]c(=O)[nH]2)[C@H]1c1ccc(F)cc1)c1cc(C(F)(F)F)cc(C(F)(F)F)c1` [Aprepitant], the cell viability turned out to be 0.985.

For the compound `Cc1cn(-c2cc(NC(=O)c3ccc(C)c(Nc4nccc(-c5cccnc5)n4)c3)cc(C(F)(F)F)c2)cn1` [Nilotinib], the cell viability was 1.26.

For `NC(=O)c1ccc(-c2nc(-c3ccccn3)c(-c3ccc4c(c3)OCO4)[nH]2)cc1`, the cell viability worked out at 1.31.

For the compound `CCCNC(=O)Nc1ccc(Oc2ncnc3cc(OC)c(OC)cc23)cc1Cl`, the cell viability came out at 1.08.

With `COC1=CC(=O)c2ccccc2C1=O` [2-Methoxynaphthoquinone], the cell viability came out at 1.04.

As to `CS(=O)(=O)c1cccc(C[C@H](NC(=O)c2c(Cl)cc3c(c2Cl)CCN(C(=O)c2ccc4ccoc4c2)C3)C(=O)O)c1` [Lifitegrast], the cell viability amounted to 1.17.

Regarding `CC(=O)c1c(C)c2cnc(Nc3ccc(N4CCNCC4)cn3)nc2n(C2CCCC2)c1=O` [Palbociclib Isethionate], the cell viability was 1.11.

As for `CC(=O)c1c(C)c2cnc(Nc3ccc(N4CCNCC4)cn3)nc2n(C2CCCC2)c1=O` [Palbociclib], the cell viability was 0.869.

Turning to `COc1ccc(/C(C#N)=C/c2ccc(N3CCC(O)CC3)s2)cc1OC`, the cell viability came to 1.07.

Turning to `COc1ccc(-c2nc(-c3cc(C(F)(F)F)cc(C(F)(F)F)c3)n(Cc3ccc(C(N)=O)cc3)c2-c2ccc(OC)cc2)cc1` [Apoptozole], the cell viability stood at 0.945.

For `COc1ccc2cc(C(C)C(=O)Oc3ccc(C(N)=S)cc3)ccc2c1` (stereo not given), the cell viability stood at 1.09.

For the compound `COc1nccnc1NS(=O)(=O)c1ccc(N)cc1` [Sulfalen], the cell viability amounted to 1.17.

As for `CC(C)(C)c1ccc(S(=O)(=O)/C=C/C#N)cc1`, the cell viability was determined as 1.09.

As for `N#CCC(=O)NN` [Cyanoacetohydrazide], the cell viability worked out at 1.23.

Consider `CC(N)CCCC(C)(C)O` (stereo not given) [Heptaminol hydrochloride], for which the cell viability was determined as 0.996.

As to `CNC(=O)c1cc(Oc2ccc3nc(N[C@@H]4CCCC[C@H]4O)sc3c2)ccn1`, the cell viability worked out at 1.09.

Turning to `Cn1cc(/C=C2\C(=O)Nc3cccnc32)c2ccccc21`, the cell viability came out at 0.883.

For `CNC(=O)c1ccc(Nc2ncc(C(F)(F)F)c(NCc3nccnc3N(C)S(C)(=O)=O)n2)cc1` [Defactinib], the cell viability was 1.03.

For `Cc1ccc(NC(=O)C2(c3ccc4c(c3)OC(F)(F)O4)CC2)nc1-c1cccc(C(=O)O)c1` [Lumacaftor], the cell viability came to 1.19.

Take `O=C(NN=Cc1c(O)ccc2ccccc12)c1ccncc1`: the cell viability is 0.84.

As for `C[C@H]1[C@H](C)CC[C@]2(C(=O)O[C@@H]3O[C@H](CO[C@@H]4O[C@H](CO)[C@@H](O[C@@H]5O[C@H](C)[C@H](O)[C@@H](O)[C@H]5O)[C@H](O)[C@H]4O)[C@@H](O)[C@H](O)[C@H]3O)CC[C@]3(C)C(=CC[C@@H]4[C@@]5(C)C[C@@H](O)[C@H](O)[C@@](C)(CO)[C@@H]5CC[C@]43C)[C@H]12` [Asiaticoside], the cell viability came out at 1.11.

Consider `C=C1CC/C=C(\C)CC[C@@H]2[C@@H]1CC2(C)C` [β-Caryophyllene], for which the cell viability is 0.986.

`OCCOc1ccc(/C(=C(/CCCl)c2ccccc2)c2ccccc2)cc1` [Ospemifene]: the cell viability was 1.08.

On to `CC(C)OC(=O)C(C)(C)Oc1ccc(C(=O)c2ccc(Cl)cc2)cc1` [Fenofibrate], for which the cell viability was 1.05.

For `CC=CC1=C(C(=O)O)N2C(=O)[C@@H](NC(=O)[C@H](N)c3ccc(O)cc3)[C@H]2SC1` [Cefprozil hydrate], the cell viability amounted to 0.984.

In the case of `Nc1nc(OCC2CCCCC2)c2[nH]cnc2n1`, the cell viability came to 1.03.

Take `CCn1c(-c2nonc2N)nc2c(C#CC(C)(C)O)ncc(OC[C@H]3CCCNC3)c21`: the cell viability worked out at 0.94.

`NS(=O)(=O)c1ccc(S(=O)(=O)Nc2cccc3c(Cl)c[nH]c23)cc1` [Indisulam]: the cell viability was 0.949.

For the compound `CCN(CC)CCOc1ccc(Nc2ncc3cc(-c4c(Cl)cccc4Cl)c(=O)n(C)c3n2)cc1`, the cell viability amounted to 0.362.

Regarding `CN1C(=O)C(Cc2c[nH]c3ccccc23)NC1=S` (stereo not given) [Necrostatin-1], the cell viability was found to be 1.

With `CC1(C)C(O[C@@H]2OC[C@@H](O)[C@H](O)[C@H]2O)CC[C@]23CC24CC[C@]2(C)[C@@H]([C@@]5(C)CC[C@@H](C(C)(C)O)O5)[C@H](O)C[C@@]2(C)C4C[C@@H](O[C@@H]2O[C@H](CO)[C@@H](O)[C@H](O)[C@H]2O)C13` (stereo not given in full) [Astragaloside IV], the cell viability came out at 0.927.

For the compound `COc1cc2ncnc(Nc3cccc(Cl)c3)c2cc1OC`, the cell viability was found to be 0.877.

For `Cc1[nH]nc(C(F)(F)F)c1Cc1sc2c(c1C(=O)N1C[C@](C)(O)CO1)c(=O)n(C)c(=O)n2C(C)C`, the cell viability stood at 1.06.

As for `O=c1oc2cc(O)ccc2s1` [Tioxolone], the cell viability was 1.17.

Turning to `O=C(O)c1ccccc1O` [Salicylic acid], the cell viability turned out to be 0.999.

With `Nc1ncnc2c1ncn2C1OC(COP(=O)(O)O)C(O)C1O` (stereo not given) [Adenosine 5'-monophosphate monohydrate], the cell viability came out at 1.09.

On to `COc1cc2ncnc(-n3nc(-c4ccccn4)nc3N)c2cc1OC`, for which the cell viability is 1.04.

`CS(=O)(=O)c1ccc(-c2nnc(/C=C/c3nnc(-c4ccc(C#N)cc4)o3)n2-c2ccccc2Cl)nc1`: the cell viability came out at 0.803.

On to `COC(=O)c1ccc(O)c(OC)c1` [Methyl Vanillate], for which the cell viability amounted to 1.18.

As to `O=C(O)[C@H](CC(=O)N1C[C@H]2CCCC[C@H]2C1)Cc1ccccc1` [Mitiglinide calcium], the cell viability amounted to 1.14.

As to `C[C@]12CCC3=C4CCC(=O)C=C4CC[C@H]3[C@@H]1CC[C@@]2(O)CC#N` [Dienogest], the cell viability is 1.25.

For the compound `COc1c(O)cc2oc(-c3ccccc3)cc(=O)c2c1O` [Oroxylin A], the cell viability worked out at 1.09.
